# Results: the supplement of paper PMC3334620
# In all, about 33,000 sequences were measured (“E-score (-0.5 to 0.5)”: median about -0.041, highest 2% from about 0.37 on). Some of the results follow.
# Target: T1, Ecm22 (UniProt Q05958)
# T1 sequence: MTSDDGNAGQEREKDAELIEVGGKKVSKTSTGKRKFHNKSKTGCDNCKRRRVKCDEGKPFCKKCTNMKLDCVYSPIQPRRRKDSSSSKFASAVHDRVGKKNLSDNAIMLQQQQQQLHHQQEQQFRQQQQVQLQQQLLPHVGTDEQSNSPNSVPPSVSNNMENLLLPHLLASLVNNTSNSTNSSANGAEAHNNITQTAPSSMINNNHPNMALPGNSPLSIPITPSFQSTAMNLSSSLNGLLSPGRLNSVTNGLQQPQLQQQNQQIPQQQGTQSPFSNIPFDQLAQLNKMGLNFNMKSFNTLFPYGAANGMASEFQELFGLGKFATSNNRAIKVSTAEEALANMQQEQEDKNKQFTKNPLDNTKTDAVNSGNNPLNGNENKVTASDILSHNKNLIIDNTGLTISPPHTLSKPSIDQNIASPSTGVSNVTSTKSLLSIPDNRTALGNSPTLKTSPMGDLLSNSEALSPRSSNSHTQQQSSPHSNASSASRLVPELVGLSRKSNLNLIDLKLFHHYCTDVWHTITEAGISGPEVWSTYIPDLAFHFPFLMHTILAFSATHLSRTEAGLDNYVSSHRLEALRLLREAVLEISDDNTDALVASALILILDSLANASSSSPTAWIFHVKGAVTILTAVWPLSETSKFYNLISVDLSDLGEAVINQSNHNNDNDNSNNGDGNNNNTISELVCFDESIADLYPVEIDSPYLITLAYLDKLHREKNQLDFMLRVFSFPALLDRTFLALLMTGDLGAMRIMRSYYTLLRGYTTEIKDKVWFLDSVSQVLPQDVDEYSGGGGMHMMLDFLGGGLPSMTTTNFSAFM
# Experiment: PBM E-score (8-mer binding enrichment) (E-score (-0.5 to 0.5)); higher = stronger / more preferred TF binding; most listed sequences are background and not binding sites
# Conditions: protein concentration: 200 nM; construct: GST-full length
# Outline: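 PURExpress in vitro transcription/translation supplied GST-tagged yeast transcription factors, either full-length or DNA-binding domain. Applied at about 100-200 nM to universal all-10-mer Agilent arrays double-stranded by primer extension, the bound protein was detected with fluorescent anti-GST. E-scores, modified Wilcoxon-Mann-Whitney statistics, were given by the Universal PBM Analysis Suite to ungapped eight-base words pooled with their reverse complements after masliner normalisation.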
row,Sequence,PBM E-score
1,TAATGACA,0.195
2,ACATCCGA,0.125
3,CGGTTCTC,0.0952
4,CCGCTACG,0.339
5,ACCTGTTG,-0.071
6,GAGGCACC,-0.207
7,ACGACTTC,0.297
8,ATATTCAC,-0.0641
9,GGCGTACA,0.16
10,CCACGTCC,-0.274
11,CACTTATC,0.0583
12,ACTGGTAG,-0.235
13,CAATTTAA,-0.0586
14,CTGGGCAA,-0.15
15,GACCTGGC,-0.3
16,GGGATAGA,-0.175
17,GATGTGCC,-0.139
18,AACATGGA,-0.242
19,AAGAAGAC,-0.0845
20,CCCGATCA,0.197
21,AACCCACA,0.0295
22,CAGAATTC,-0.0961
23,GGACCGAC,0.302
24,CACAGTGG,-0.0782
25,AGATAGCC,-0.113

row,Sequence,PBM E-score
1,ATCTTCTG,-0.0378
2,CGCAGACC,-0.029
3,CCCGACGC,-0.113
4,AGTAACGG,0.0561
5,CGGCCCTC,-0.162
6,GGGATCAC,-0.169
7,AGGAGTAT,-0.109
8,CCGATAGC,-0.0452
9,GGGTGTGA,-0.313
10,CCTCCGCA,-0.15
11,CATCCATA,-0.0474
12,CACAGGAA,-0.0965
13,GCATTGAC,-0.0873
14,ACAATCGG,-0.0544
15,TACCCATA,0.0395
16,GCTAGCAC,-0.238
17,GCTCCTCC,-0.0935
18,CACCGCAA,0.279
19,ATGCTGGA,-0.027
20,AGACAAAA,-0.158
21,AAGTGACA,0.018
22,GCAGCGGA,0.0861
23,GCACTCGC,0.0475
24,AACACGAC,0.133
25,GGTGTTAC,-0.131

row,Sequence,PBM E-score
1,ACTTAGCA,-0.188
2,CCACCTCA,-0.0694
3,AATCTCAA,0.117
4,GAGCTTCC,0.115
5,GATTTACA,-0.0488
6,AGTTTTTG,-0.142
7,GCACCGAC,0.0494
8,GAAGCTGA,-0.202
9,CACTACGA,0.284
10,GGATTAGA,-0.175
11,AGATAACG,0.123
12,GGCAGGAC,-0.0996
13,GCCTCCCA,-0.166
14,GAACGACA,0.456
15,ACGTTGCT,0.196
16,CACTGTAC,0.00959
17,CATAATGC,-0.0828
18,AACCCGCG,0.0935
19,CTAAACAG,-0.109
20,CCCCGACG,-0.0371
21,CGGTGACA,-0.087
22,AACATGTG,0.0146
23,CATAGCAC,-0.0177
24,CTAGACGC,-0.00042
25,CTAAAGAG,0.0114

row,Sequence,PBM E-score
1,CTTATTTC,-0.0156
2,ATTACTTA,0.015
3,CGTTACCA,0.149
4,CCGTACCA,0.423
5,GTCATAAC,-0.126
6,CCACCGGG,-0.108
7,CATTTAAA,0.0151
8,AGGCCAGA,-0.178
9,CCGGTTTA,0.0921
10,AAAAGTGC,-0.0258
11,GAATCATA,-0.0949
12,CATCACTA,-0.116
13,AGCAGTCC,-0.358
14,CGCGCTGA,-0.0978
15,GACATTCA,-0.0786
16,ATAGATAC,0.128
17,TTACTGAA,0.14
18,GTACACGA,0.334
19,CCGTATGA,0.396
20,TCTGCTCA,-0.168
21,CAAAAGGG,-0.181
22,GAAAAGAC,-0.0519
23,CGCCTTAC,-0.0202
24,CTAAGACA,-0.0386
25,GACAAATC,-0.0608

row,Sequence,PBM E-score
1,AGGCCCTG,-0.265
2,CCGGTTTC,-0.063
3,GAAAAAAA,0.0711
4,ACCATGTC,0.107
5,CGGTTTTA,0.072
6,CATTCCCC,-0.171
7,CCTAAGCA,-0.137
8,CTGCTATA,-0.0309
9,GCGTGACA,-0.018
10,GAAATGCA,-0.0453
11,GCGCTGCC,-0.227
12,CAATCGAG,0.0272
13,GACATGAC,-0.0817
14,GGTAATTA,0.0657
15,CCGAATTC,0.156
16,ATCACGGG,-0.0941
17,AAGCTCTA,-0.0207
18,CGACGGCA,0.24
19,CGCTGGAA,-0.167
20,GGAAGTAA,-0.0167
21,CATTTGGC,-0.217
22,ACGCCTGA,0.0176
23,GTGACTTA,-0.107
24,AAGGTAAG,-0.0527
25,TATGCGCA,0.0405

row,Sequence,PBM E-score
1,ATGACTTC,-0.0108
2,ACTTTCCT,-0.287
3,CGCAAGCC,0.0725
4,GACGGCAA,-0.155
5,TCATGGCA,-0.173
6,TAACCCAA,-0.139
7,CGTCGAGC,-0.0203
8,AGTAAGGA,-0.124
9,CCCAATTC,0.0278
10,CAATCGCG,0.118
11,ACGCGACC,0.204
12,GGCAGGGA,-0.148
13,AAGGTTAT,0.0139
14,CAAAGCTG,-0.191
15,AACCGAGT,0.204
16,AACTGTTA,0.091
17,CCTGCGTA,0.215
18,CAATAAGC,-0.0593
19,AGTAGTAC,0.167
20,ATATGAGC,-0.14
21,GGCATACC,-0.202
22,AGTGCGTG,0.0494
23,ATGAGACA,0.00575
24,GACCGAAC,0.198
25,GCATCGCC,0.0445

row,Sequence,PBM E-score
1,GGCAAAGA,0.0998
2,ACACGTCG,0.189
3,AATGGTTC,-0.00726
4,GAGTGGCC,0.0549
5,AGGTGCAC,-0.217
6,AAGTTTAT,0.0346
7,GCATAGCA,-0.00745
8,GACCTTGC,0.096
9,AGATCATA,-0.0154
10,CCGCAAGA,0.0804
11,ACAGAAAA,0.11
12,AATATAGA,0.0601
13,AAACTCCT,-0.185
14,AAAGGCAA,-0.13
15,ATTCGCAA,0.0528
16,CACTACTA,-0.172
17,CACCCATG,-0.165
18,GGGGTCTA,-0.178
19,GTATCCCA,-0.118
20,CACTCTAA,-0.266
21,GGGAATTA,-0.132
22,GACGCCTC,0.117
23,ACCGTTAC,0.0437
24,GCAGTTAC,0.0133
25,CATTATAG,-0.144

row,Sequence,PBM E-score
1,CGAATGAC,0.192
2,GTAAAGAA,0.156
3,CATTTAAG,-0.0776
4,AAGAAGGC,-0.198
5,CGTAGCTC,0.32
6,TCGATTCA,0.0423
7,CCTCATCA,-0.0607
8,GTTACAGA,-0.244
9,ATCTCTCG,0.222
10,CCCACGCC,-0.152
11,ATACGAAT,0.45
12,CAGAGCCA,-0.108
13,ATAGATGA,-0.0201
14,ATCCTTAC,-0.0592
15,AGGCTTTA,-0.133
16,CGGGCAAA,0.0112
17,ACACGGAA,-0.124
18,CAATATGG,-0.263
19,AACCTACG,0.0972
20,GTTTTGGA,-0.102
21,CTCGACAA,0.0127
22,ACCCGTGG,-0.201
23,ATCGATAA,-0.0502
24,GTTGTTAA,0.0804
25,CTTAGCAC,-0.103

row,Sequence,PBM E-score
1,GCTATAAA,0.00908
2,AGGTACCT,-0.0974
3,GAATGATC,0.0119
4,CGTTCGTA,0.461
5,ACGTACCG,0.301
6,TATGGAGA,-0.121
7,CCTGAATC,-0.128
8,ACCATACA,-0.0596
9,GCTAAGAA,0.0908
10,CGTAAGAG,0.226
11,AGCATCGG,-0.0521
12,CGTTAGCA,0.0718
13,GGTTTCCA,-0.26
14,GACGAAAA,0.196
15,ACTGCTAC,0.00971
16,AGTTAGTA,-0.0292
17,CTTAGCCC,-0.15
18,AGGATCTG,-0.0568
19,AGCCGGCT,-0.311
